Laboratory results taken from paper PMC6919601, “Identification of Plasmodium dipeptidyl aminopeptidase allosteric inhibitors by high throughput screening” (PLoS ONE, 2019).
Screen size: about 110,000 compounds; about 230 (0.21%) showed an effect of 50% or more. The list shows a part of the results.

target: DPAP1 (Plasmodium falciparum, UniProt Q8IIJ9); assay: primary screen, percent inhibition; read by cleavage of a fluorogenic dipeptide substrate; higher = more effect of the substance; parameters: species or system P. falciparum D10 trophozoite lysates; single well
Sequence (Q8IIJ9 whole entry, looked up): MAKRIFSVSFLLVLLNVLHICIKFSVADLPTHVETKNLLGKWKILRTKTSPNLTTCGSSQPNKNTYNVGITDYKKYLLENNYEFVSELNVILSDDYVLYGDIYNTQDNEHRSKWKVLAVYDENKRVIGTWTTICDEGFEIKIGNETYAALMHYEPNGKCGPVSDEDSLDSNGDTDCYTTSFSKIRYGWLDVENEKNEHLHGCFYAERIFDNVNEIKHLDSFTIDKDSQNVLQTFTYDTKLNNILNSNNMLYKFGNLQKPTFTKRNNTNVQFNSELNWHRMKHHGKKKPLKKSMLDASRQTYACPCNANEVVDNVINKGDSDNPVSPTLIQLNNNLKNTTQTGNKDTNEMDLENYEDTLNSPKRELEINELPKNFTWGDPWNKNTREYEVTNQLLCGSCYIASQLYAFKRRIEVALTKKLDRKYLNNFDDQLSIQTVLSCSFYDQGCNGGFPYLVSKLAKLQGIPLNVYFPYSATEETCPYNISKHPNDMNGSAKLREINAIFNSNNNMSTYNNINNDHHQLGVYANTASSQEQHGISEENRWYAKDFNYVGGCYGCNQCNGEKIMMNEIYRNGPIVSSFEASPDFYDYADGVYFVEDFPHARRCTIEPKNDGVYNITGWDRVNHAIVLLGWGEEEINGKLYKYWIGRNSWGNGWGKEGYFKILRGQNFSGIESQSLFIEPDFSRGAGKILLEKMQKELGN
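Further: 30 min substrate incubation versus DMSO and 10 µM JCP410 controls.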

| Compound | % Inhibition @ 10 uM |
| --- | --- |
| CC(=O)Nc1ccc(C(=O)Nc2cccc(Cl)c2)cc1 | 0.317% |
| CCOc1cc(C2C(C#N)=C(N)Oc3[nH]nc(-c4cccnc4)c32)ccc1O (centres unmarked) | -4.41% |
| CS(=O)(=O)Nc1ccc(C(=O)c2ccccc2)cc1 | 0.907% |
| CCOc1ccc(/C=C/C(=O)c2ccc(OCC)cc2)cc1 | 2.45% |
| Cc1ccc(NC(=O)Nc2nc3ccc(S(C)(=O)=O)cc3s2)cc1 | 3.05% |
| COc1ccc(-n2c(O)cc(=O)nc2SC)cc1 | 1.38% |
| CC(=O)c1cccc(N2C(=O)c3cccnc3C2=O)c1 | -2.8% |
| Cc1c(C(=O)NCc2cccc(F)c2)oc2ccc3c(c12)C(O)CC1(CCCCC1)O3 (centres unmarked) | -3.47% |
| O=C(Cc1cccc2ccccc12)Nc1nccs1 | -1.38% |
| CC(C)Cn1cc(NC(=O)N2CCC(Cc3ccccc3)CC2)c2ccccc2c1=O | -11.9% |
| CCCC(=O)n1nc2c3c(cccc31)C(=O)c1ccccc1-2 | -2.75% |
| O=C(N/C(=C\c1ccccc1)C(=O)N1CCCCC1)c1cccc(Br)c1 | -4.48% |
| C=CCNc1nc(OC(C(F)(F)F)C(F)(F)F)nc(N(c2ccccc2)c2ccccc2)n1 | -1.76% |
| Cc1c(CCC(=O)O)c(O)nc2ccccc12 | 4.32% |
| CC(C(=O)NC1CCCCCC1)n1c2ccccc2c2cnn(C)c(=O)c21 (centres unmarked) | 3% |
| N#C/C(=C\c1c(Cl)cccc1Cl)c1ccccc1 | 13% |
| COCc1c(Br)c(C)nc2sc3c(O)nnnc3c12 | 3.94% |
| CCc1ccc([N+]2=C3CCCCN3C(O)(c3ccc(F)cc3)C2)cc1 (centres unmarked) | -1.44% |
| COc1cccc(OCCCCN2CCC(C)CC2)c1 | 3.87% |
| CCOc1ccc(N(CC(=O)NC2CC3CCC2C3)S(=O)(=O)c2ccc(C)cc2)cc1 (centres unmarked) | 3.85% |
| CC1CCN(C(=O)/C(=C\C=C/c2ccccc2)NC(=O)c2ccccc2)CC1 | 5.98% |
| COc1ccc(C(=O)N2CCN(C/C=C/c3ccccc3)CC2)cc1 | -1.38% |

| Compound | % Inhibition @ 10 uM |
| --- | --- |
| CCOC(=O)c1cc(S(=O)(=O)NCc2ccc(OC)cc2)cn1C | 2.32% |
| COc1ccc(CNC(=S)Nc2ccccc2)cc1Cl | -5.78% |
| OCC1CCCN(Cc2cccc(Br)c2)C1 (centres unmarked) | -4.4% |
| Cc1ccc(CN2C(=O)c3nccnc3C2=O)cc1 | 0.66% |
| O=C1c2oc3ccccc3c(=O)c2C(c2ccccc2F)N1c1nccs1 (centres unmarked) | -0.828% |
| CCOC(=O)c1c(NC(=O)C(=O)c2c[nH]c3ccccc23)sc2c1CCCC2 | 0.561% |
| COc1ccccc1NC(=O)c1ccc(Cn2nc(C)cc2C)o1 | 5.53% |
| O=C(O)/C=C\C(=O)N1CCN(c2ccc([N+](=O)[O-])cc2)CC1 | -2.7% |
| CCCNC(=O)N(C)Cc1nc(-c2ccc(C)cc2)no1 | 3.27% |
| CCCOc1ccc(C(=O)C2=C(O)C(=O)N(CCN3CCOCC3)C2c2ccc(OC)cc2)c(C)c1 (centres unmarked) | 1.52% |
| OCC1CCCN(Cc2ccc(F)cc2)C1 (centres unmarked) | 0.827% |
| CCOc1cc(/C=C/C(=O)O)ccc1OCc1ccc(Br)cc1 | -3.98% |
| COc1ccc(/C=C(\C#N)c2nc3cc(C)ccc3[nH]2)cc1 | 2.45% |
| COc1cccc(C(=O)N2CCN(c3ccccc3F)CC2)c1OC | -9.45% |
| Cc1ccc(NC(=O)CN2CCN(CC(=O)Nc3ccc(C)cc3)CC2)cc1 | -4.39% |
| CCNC(=O)c1nn(C)c2c1CS(=O)(=O)c1ccccc1-2 | 3.98% |
| CC(C)N(C)CC#CC(O)(c1ccccc1)C1CCCC1 (centres unmarked) | 2.86% |
| COc1ccc(OC)c(N(CC(=O)Nc2ccccc2Br)S(C)(=O)=O)c1 | 5.24% |
| COc1ccc(C(=O)NCc2nnc(SCC(=O)NCc3ccc4c(c3)OCO4)o2)cc1 | 5.83% |
| CCCn1c2ccccc2c2cnn(CC(=O)N(Cc3ccco3)C3CCCC3)c(=O)c21 | -2.21% |
| Clc1ccc(-c2noc3ncnc(NCCN4CCOCC4)c23)cc1 | -2.19% |
| Cc1ccc(-c2csc(/C(C#N)=C/c3ccccc3[N+](=O)[O-])n2)c(C)c1 | -2% |

| Compound | % Inhibition @ 10 uM |
| --- | --- |
| CC1CC(C)CN(CCCNC(=O)CN(C)c2nnc(N3CCCC3=O)s2)C1 (centres unmarked) | -6.99% |
| COc1cccc(NC(=O)C(C)Oc2cccc(C)c2)c1 (centres unmarked) | 8.38% |
| Nc1nc2nc(-c3cccs3)cc(C(F)(F)F)n2n1 | 0.032% |
| O=S1(=O)C(/C=N/CC2CCCO2)=C(O)c2sccc2N1Cc1ccc(F)cc1 (centres unmarked) | -3.09% |
| O=C(CSc1nc2cccnc2[nH]1)N1CCOCC1 | -1.24% |
| CC(=O)c1cccc(NC(=O)c2c(-c3c(Cl)cccc3Cl)noc2C)c1 | 1.57% |
| CCOc1ccc(-c2nc3cc(NC(=O)c4ccc(Br)o4)ccc3o2)cc1 | -2.82% |
| CC(C)C[C@H](NC(=O)OCc1ccc(C(F)(F)F)cc1)C(=O)NCC#N | -6.46% |
| O=C(NCc1ccco1)C(Sc1ccccc1)c1ccccc1 (centres unmarked) | -2.6% |
| COCCNC(=O)c1noc2c1COc1ccc(C)cc1-2 | -3.77% |
| CSc1ccc(CN2CCCCC2CCO)cc1 (centres unmarked) | -2.78% |
| Cc1cc(O)n(CCc2ccccc2)c(=O)c1C#N | 0.487% |
| CCOC(=O)c1c(N)sc2c1CC(C)(C)NC2(C)C | 4.38% |
| CC(C)Cc1ccc(C(C)C(=O)NC(C)c2ccccc2)cc1 (centres unmarked) | 4.93% |
| COc1cccc(-n2nnc3c(=O)n(CC(=O)NCc4ccccc4Cl)cnc32)c1 | -3.94% |
| COc1ccc(OC)c(-c2cc(C(=O)N3CCCCC3C)no2)c1 (centres unmarked) | -5.77% |
| Cc1ccc2c(c1)-c1onc(C(=O)N3CC=C(c4ccccc4)CC3)c1CO2 | -7.52% |
| OCCNc1nc(O)c2c(n1)-c1ccccc1CC21CCCCC1 | -1.99% |
| O=C(Cn1cnc2onc(-c3ccc(F)cc3)c2c1=O)N1CCc2ccccc2C1 | 5.71% |
| O=C(c1ccccc1)c1cccn1CC(=O)N1CCc2ccccc2C1 | -5.89% |
| Cc1ccc2c(CC(=O)Nc3nc4ccc(S(C)(=O)=O)cc4s3)coc2c1C | -2.4% |
